Laboratory results taken from PubChem BioAssay AID1345082 (National Center for Advancing Translational Sciences (NCATS), 2018).
In all, about 94,000 compounds went through this assay and about 4,000 (4.3%) were called active. This list was built around the results that the source calls inconclusive (neither active nor inactive); the mix of calls is not that of the screen. The call rests on the fitted dose curve; in most records, active means well fitted inhibition curve with a large enough effect; inconclusive means small, poorly fitted or top-dose-only effect; inactive means no such curve, though single readings can be large or run the other way. Potencies beside an inconclusive call are fits to weak or partial responses and may not hold up.

Test: Cytotoxic Profiling in NIH 3T3 Cell Line of Diverse Libraries Using Quantitative High-Throughput Screening; further: nearly all actives have a fitted effect of over 55% in size
Settings: NIH 3T3 viability, CellTiter-Glo ATP luminescence, 48-72 h; activity change, negative = cytotoxicity: at 96.7 µM (top of the series) unless noted; series mostly up to 96.7 µM
Summary of the method: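 Luminescent ATP readout (CellTiter-Glo, 10 min RT) after 48 or 72 hr compound exposure of NIH 3T3 cells seeded at 400 cells/well in 1536-well format; quantitative HTS.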
On the % scale 0 is the no-effect control and ±100 the full control effect; potency means the concentration at half of the fitted maximal effect; tags describe the fitted curve by direction and shape.

SMILES	Potency	activity change, negative = cytotoxicity	outcome
COc1cccc(C(=O)N2CCC(N3C(=O)c4c(c(C)nn4-c4ccccc4)C3C3CC3)C2)c1 (stereo not given)	inconclusive: 25.1 µM [inhibitor, full curve]		
N#Cc1ccc([S+](=O)([O-])N2CCC3(CC2)OCCN(CC2CC2)C3=O)cc1	inconclusive: 100 µM [inhibitor, single point]		
Cn1cc(-c2ccccc2)cc1C(=O)N1CCCC1		inactive: -9.52%	
Cc1ccc2[nH]c(C(=O)N3CCC(=O)N(CC4CC4)C(C(C)C)C3)c(C)c2c1 (stereo not given)	inconclusive: 63.1 µM [inhibitor, partial curve, poor fit]		
COc1cc(Cl)ccc1C(=O)NC1CCN(c2cc(C(F)(F)F)nc(C)n2)CC1	inconclusive: 25.1 µM [inhibitor, partial curve]		
Cc1ccc(-c2ccccc2CN2CCN([S+](=O)([O-])c3c(C)noc3C)CC2)cc1Cl	inconclusive: 31.6 µM [inhibitor, partial curve]		
Cc1nnc2ccc(NC3CCCC3)nn12		inactive: -29%	
Cc1cc(C)c(CNC(=O)c2cc(-c3ccccc3C)cc3c2OCCN3C)c(=O)[nH]1	active: 44.7 µM		
COc1cc(-c2ccnc3nc(Cc4cc(F)cc(F)c4)nn23)cc(OC)c1OC	inconclusive: 12.6 µM [inhibitor, partial curve, poor fit]		
CN1CC(=O)N(C2CCCNC2)Cc2c(NC3CCCCC3O)ncnc21 (stereo not given)			inactive
Cc1ccc(Nc2ccnc(N3CCCC3C(=O)N3CCCC(C)C3)n2)cc1 (stereo not given)	inconclusive: 39.8 µM [inhibitor, partial curve, poor fit]		
CN(C)c1cccc(C(=O)N2CCC3(CC2)NC(=O)N(c2cccc(F)c2)N3)c1	inconclusive: 44.7 µM [inhibitor, partial curve, poor fit]		
Cc1ccc(NC(=O)N[C@@H]2C=C(C(=O)N[C@@H](Cc3ccc(O)cc3)C(N)=O)C[C@@H](O)[C@@H]2O)cc1		inactive: -3.49%	
COc1ccc(F)cc1-c1cccc(C(=O)O)c1		inactive: -9.76% [at 138 µM]	
O=C1NCc2ccccc2CC12CCCN(CC1CC=CCC1)C2 (stereo not given)			inactive
O=C(c1ccc(F)cc1F)N1CCN(c2cc(-c3ccc(F)cc3)[nH]n2)CC1	inconclusive: 39.8 µM [inhibitor, partial curve, poor fit]		
O=C(N1CCN(Cc2ccccc2)CC(O)C1)C1(c2ccccc2F)CC1 (stereo not given)		inactive: -18.6%	
COc1ccccc1-c1ccc(CN2CCCCC2C(=O)N(C)C)cc1 (stereo not given)	inconclusive: 50.1 µM [inhibitor, partial curve, poor fit]		
O=c1n(-c2ccc([N+](=O)[O-])cc2)nc2n1CCN(Cc1cccc3ccccc13)C2	inconclusive: 50.1 µM [inhibitor, partial curve, poor fit]		
CN(C)c1cc(=O)c2ccnc(-c3ccc(O)c(F)c3)c2o1	active: 31.6 µM		
CC(=O)N1CCN(c2nc(-c3c(C)noc3C)cc3cc(C(C)C)oc23)CC1	active: 50.1 µM		
O=C(NCc1ccco1)c1ccc2c(c1)CC(=O)N2Cc1cccc(F)c1	inconclusive: 25.1 µM [inhibitor, full curve]		

SMILES	Potency	activity change, negative = cytotoxicity	outcome
COCCC(=O)N1CCC(N2C(=O)C3(CCCCC3)C2c2ccccc2)CC1 (stereo not given)	inconclusive: 50.1 µM [inhibitor, partial curve, poor fit]		
COc1ccc(CCC(=O)N2CCC(Cc3nc(-c4ccccc4)no3)CC2)cc1	inconclusive: 44.7 µM [inhibitor, partial curve, poor fit]		
CCNc1nccc(N2CCC(CC(=O)NCc3ccccc3F)CC2)n1	inconclusive: 39.8 µM [inhibitor, partial curve, poor fit]		
Cc1cc(C(=O)N2CCC(n3c(=O)[nH]c4ccccc43)CC2)ccc1Cl	inconclusive: 50.1 µM [inhibitor, partial curve, poor fit]		
COc1ccccc1N1CCN([C@@H]2[C@H](O)[C@H](CO)O[C@@H]2CNS(=O)(=O)c2ccc(Cl)cc2)CC1		inactive: -31.7%	
Fc1ccccc1CN1CCNc2cnc(Nc3ccccc3)cc2C1	inconclusive: 56.2 µM [inhibitor, partial curve, poor fit]		
Cc1cc(Cn2cc3c4c(cccc42)[C@H](CC(C)C)N[C@H](C(=O)NCCN2CCCC2)C3)no1	active: 22.4 µM		
COCCOCC(=O)N1CCC(N2C(=O)C3(CCCC3)C2c2ccccc2)CC1 (stereo not given)		inactive: -25.8%	
c1ccc(COc2ccccc2Cc2nc(-c3cccnn3)no2)cc1	inconclusive: 50.1 µM [inhibitor, partial curve, poor fit]		
Cc1noc(C)c1-c1cc2cc(CN(C)C)oc2c(NCCOc2ccccc2)n1	active: 79.4 µM		
COc1nc2c(cc1CNC(=O)CO)C(=O)N(CCc1ccccn1)C2	inconclusive: 89.1 µM [inhibitor, partial curve, poor fit]		
COCCCNC(=O)CNC(=O)c1ccc(-c2cnc3ccccc3c2)cc1		inactive: -39.5%	
O=C(CCC1CCN(c2cc(NC3CC3)ncn2)CC1)NCc1ccccc1Cl	inconclusive: 35.5 µM [inhibitor, partial curve, poor fit]		
CCCNC(=O)N(CCC)CC1CCOC1 (stereo not given)	inconclusive: 70.8 µM [inhibitor, single point]		
COc1cccc(-c2cc3c(=O)n(CCNC(=O)c4ccccc4OC)ccn3n2)c1		inactive: -15.2%	
C[C@H]1[C@@H]2[C@H]3OC(=O)[C@H](C)C3CC[C@@]2(C)CC[C@@H]1NC(=O)c1ccncc1 (stereo not given in full)		inactive: -28.4% [at 138 µM]	
CCCc1nc(C(=O)N2C[C@H](c3cccc(OC)c3)[C@@H](N)C2)cs1		inactive: -22.1%	
Cn1cccc1CN1CCC(N2C(=O)C(OCC3CC3)C23CCCCC3)CC1 (stereo not given)	inconclusive: 50.1 µM [inhibitor, partial curve, poor fit]		
Cc1cccc(C(C)(C)C)c1NC(=O)N1CCOC(C(F)(F)F)C1 (stereo not given)	inconclusive: 89.1 µM [inhibitor, partial curve, poor fit]		
CCCN(CC1CCOC1)C(=O)c1ccccc1C(F)(F)F (stereo not given)			inactive
O=C(c1nc(-c2ccc(F)cc2)c2ccccn12)N1CCOCC1		inactive: -25.7% [at 138 µM]	
O=C(NCc1cccnc1)C1CCCN(Cc2cccc(-c3ccc(F)cc3F)c2)C1 (stereo not given)	inconclusive: 44.7 µM [inhibitor, partial curve, poor fit]		

SMILES	Potency	activity change, negative = cytotoxicity	outcome
CC(C)CC(C)NC(=O)c1ccc(Cn2ccn3nc4c(c3c2=O)CCCC4)cc1 (stereo not given)	inconclusive: 17.8 µM [inhibitor, full curve, poor fit]		
Cc1ccc(Cc2nc(C3CC(=O)N(c4ccc(Cl)cc4)C3)no2)cc1 (stereo not given)	inconclusive: 50.1 µM [inhibitor, partial curve, poor fit]		
O=C(Nc1ccccc1)N1CCC(OCc2noc(C3CCCO3)n2)CC1 (stereo not given)	inconclusive: 56.2 µM [inhibitor, partial curve, poor fit]		
CN1CCN(CCc2noc(C3CCCCCN3C)n2)CC1 (stereo not given)			inactive
C[S+](=O)([O-])c1cccc(-c2ncc3c(n2)OCCN(CC2CC2)C3=O)c1	inconclusive: 100 µM [inhibitor, partial curve, poor fit]		
CC(C)(C)c1ccnc(N[C@H]2CO[C@H]3[C@@H]2OC[C@@H]3NC(=O)CCCC(=O)O)n1		inactive: 1.3% [at 174 µM]	
O=C(NC1CCCCCC1)c1nc2sccn2c1-c1ccncc1	inconclusive: 39.8 µM [inhibitor, partial curve, poor fit]		
Cc1cn2nc(C(=O)N3CCN(C(=O)c4ccc(C)s4)CC3)cc2c(=O)[nH]1			inactive
O=C(N1CCN(c2ccccn2)CC1)C1(CCO)CC12CCOCC2 (stereo not given)			inactive
COc1ccc(C(=O)N2CCC(c3n[nH]c(=O)n3-c3ccc(C)cc3)CC2)cc1F	inconclusive: 44.7 µM [inhibitor, partial curve, poor fit]		
O=C(c1ccc(Cl)cc1)N1CC2(CCCN(CC3CC3)C2)Cc2ccccc21 (stereo not given)	inconclusive: 44.7 µM [inhibitor, partial curve, poor fit]		
O=C(Nc1cccc2ccccc12)O[C@@H]1CO[C@H]2[C@@H]1OC[C@@H]2NC(=O)C1CCC1		inactive: -5.56% [at 174 µM]	
Cc1cccc(C(=O)N2CCN(c3cc(C(F)(F)F)nc(C)n3)CC2)c1	inconclusive: 15.8 µM [inhibitor, partial curve, poor fit]		
Cn1cc(CN2C[C@H](C(=O)Nc3ccccn3)C[C@@H]2c2cccc(C(F)(F)F)c2)cn1	inconclusive: 56.2 µM [inhibitor, partial curve, poor fit]		
O=C(NCc1ccccc1Cl)c1ccc2oc(-c3ccnc(Cl)c3)nc2c1		inactive: -19.7% [at 138 µM]	
C[S+](=O)([O-])NCc1nnc2n1C(C(=O)NCCc1ccc(Cl)cc1)CC2 (stereo not given)		inactive: -15.3%	
COCCN1CCCCCC(O)c2cc(C(=O)Nc3cccc(OC)c3)ccc21 (stereo not given)	inconclusive: 44.7 µM [inhibitor, partial curve, poor fit]		
C=CCNC(=O)c1coc(COc2ccc3c(c2)C(c2cccc(F)c2)N(C(=O)C2CC2)CC3)n1 (stereo not given)	inconclusive: 11.2 µM [inhibitor, full curve, poor fit]		
Cc1c(Cl)cccc1NC(=O)N1CCC(Oc2ncccc2C(=O)N2CCOCC2)C1 (stereo not given)	inconclusive: 56.2 µM [inhibitor, single point]		
COc1ccc(NC(=O)N[C@H]2[C@H](O)[C@@H](N3CCC(Cc4ccccc4)CC3)[C@@H]3OC[C@H]2O3)cc1	inconclusive: 79.4 µM [inhibitor, single point]		
CCN1C(=O)CCc2cc(NC(=O)c3ccc(OC(F)(F)F)cc3)ccc21	active: 44.7 µM		
